# Source: PubChem BioAssay AID1645886 (National Center for Advancing Translational Sciences (NCATS), 2021)
# Several values for one entry are separate records, joined by “and”; a condition that tells them apart may be missing. Equal entries are not always repeated. Out of some 16,000 compounds screened, about 260 (1.6%) were called active. The shares of active, inactive and inconclusive entries below differ from those in the screen. Calls come from the whole dose curve; as a rule, active = well fitted inhibition curve with a large enough effect; inconclusive = small, poorly fitted or top-dose-only effect; inactive = no such curve, though single readings can be large or run the other way. Potencies beside an inconclusive call are fits to weak or partial responses and may not hold up.
# Biological target: Rap guanine nucleotide exchange factor 4 (Homo sapiens) (UniProt Q8WZA2)
# Sequence of UniProt Q8WZA2 (Q8WZA2 whole entry, looked up): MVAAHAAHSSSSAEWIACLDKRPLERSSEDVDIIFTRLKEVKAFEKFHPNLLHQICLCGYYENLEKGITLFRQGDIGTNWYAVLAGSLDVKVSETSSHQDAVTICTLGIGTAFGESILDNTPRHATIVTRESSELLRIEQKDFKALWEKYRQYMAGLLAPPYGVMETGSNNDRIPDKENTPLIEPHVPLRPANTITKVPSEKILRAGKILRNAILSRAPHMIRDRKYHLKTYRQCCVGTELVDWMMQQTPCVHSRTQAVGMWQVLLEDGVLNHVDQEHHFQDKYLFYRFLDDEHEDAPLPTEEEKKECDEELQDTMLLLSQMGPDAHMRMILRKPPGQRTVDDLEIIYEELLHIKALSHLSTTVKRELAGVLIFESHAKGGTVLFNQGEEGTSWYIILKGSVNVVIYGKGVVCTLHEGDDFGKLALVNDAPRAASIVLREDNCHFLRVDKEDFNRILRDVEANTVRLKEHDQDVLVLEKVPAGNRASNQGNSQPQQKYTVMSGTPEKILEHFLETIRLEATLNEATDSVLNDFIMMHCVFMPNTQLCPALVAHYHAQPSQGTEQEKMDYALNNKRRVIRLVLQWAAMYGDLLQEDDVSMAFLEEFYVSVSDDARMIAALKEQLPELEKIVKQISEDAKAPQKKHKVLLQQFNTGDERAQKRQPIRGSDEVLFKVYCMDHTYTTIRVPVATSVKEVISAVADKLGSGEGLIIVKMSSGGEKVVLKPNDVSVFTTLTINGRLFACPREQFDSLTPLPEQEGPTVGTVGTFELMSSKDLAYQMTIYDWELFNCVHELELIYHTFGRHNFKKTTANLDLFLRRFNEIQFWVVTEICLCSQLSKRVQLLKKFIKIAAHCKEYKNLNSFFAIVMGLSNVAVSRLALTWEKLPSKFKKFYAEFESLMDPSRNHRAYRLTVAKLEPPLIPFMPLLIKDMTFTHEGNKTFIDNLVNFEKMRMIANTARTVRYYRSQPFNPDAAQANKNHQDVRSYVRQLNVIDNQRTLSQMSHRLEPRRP
# Assay: Validation qHTS for antagonist of cAMP-regulated guanine nucleotide exchange factor 4 (EPAC2); note: nearly all actives have a fitted effect of over 40% in size;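 for activity, negative = inhibition: 100% = activation by cAMP agonist control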
# Conditions: EPAC2 Rap1B BODIPY-GDP exchange, fluorescence; activity, negative = inhibition: at 112 µM (top of the series)
# Outline: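 Fluorescent exchange read-out: 100 nM EPAC2 with 250 nM RAP1B–BODIPY-GDP and 50 uM GDP; BODIPY-GDP release lowers fluorescence. Read at 480/540 nm every 5 min for 30 min at room temperature; normalized to 6.5 mM cAMP.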
# Potency is the fitted concentration of half-maximal effect; tags give direction and shape of the fitted curve.
SMILES,Potency,"activity, negative = inhibition"
COCCNc1ncnc2ccc(-c3ccccc3C)cc12,"inconclusive: 50.1 µM [inhibitor, partial curve]",
CCCCCCCCN1[C@@H](CC(=O)OCC)c2cc(F)ccc2S1(=O)=O,"inconclusive: 50.1 µM [inhibitor, partial curve, poor fit]",
O=C(c1cccnc1)C1CCCN(Cc2ccc3c(c2)CN(C(=O)c2ccc4[nH]ccc4c2)CCO3)C1 (configuration not stated),"inconclusive: 89.1 µM [inhibitor, single point]",
COc1ccccc1/C=C\C(=O)OC[C@@H]1CCCN2CCCC[C@H]12,"inconclusive: 79.4 µM [inhibitor, partial curve, poor fit]",
O=C(N[C@@H](Cc1ccccc1)C(=O)CCl)OCc1ccccc1,"inconclusive: 79.4 µM [inhibitor, single point]",
Cc1cc2c(c(-c3nc4ccccc4s3)c1)OC(CNC(=O)CCc1cccnc1)C2 (configuration not stated),"inconclusive: 79.4 µM [inhibitor, partial curve, poor fit]",
CCOc1cc(-c2nccc3cc(OC)c(OC)cc23)cc(OCC)c1OCC,"inconclusive: 89.1 µM [inhibitor, partial curve, poor fit]",
CN(C)c1ccc(C=O)c(O)c1,"inconclusive: 100 µM [inhibitor, partial curve, poor fit]",
Cc1cc(C(=O)NCC2CCC3(CCN(Cc4ccc5ccccc5c4)CC3)O2)n(C)n1 (configuration not stated),,inactive: -21.2%
O=c1c(-c2ccc(Cl)cc2)nc2cncnc2n1Cc1ccccc1Cl,,inactive: -21.9%
Cn1cc(CN2CCOc3ccc(C(O)C4CCCCC4)cc3C2)cn1 (configuration not stated),"inconclusive: 22.4 µM [inhibitor, full curve, poor fit]",
COc1cccc(-c2oc3ccccc3c(=O)c2O)c1,"inconclusive: 50.1 µM [inhibitor, partial curve]",
COc1ccc(NC(=O)c2ccc(-c3ccc(-c4noc(C)n4)cc3C)cc2)cc1OCCN(C)C,"inconclusive: 39.8 µM [inhibitor, full curve] and inconclusive: 56.2 µM [inhibitor, partial curve]",
COc1cccc(Nc2ncc3nc(-c4ccccc4)c(=O)n(C4CC4)c3n2)c1,,inactive: -11.6%
CC1=CC(=O)C2C(C)(C)CCC[C@@]2(C)[C@@]1(O)CCc1ccoc1 (some centres not stated),"inconclusive: 70.8 µM [inhibitor, partial curve, poor fit]",
COc1ccc(Oc2ncc3nc(-c4cc(F)cc(F)c4)c(=O)n(CCC#N)c3n2)cc1,,inactive: -23.4%
CCNC(=O)N1CCN(CCCC(c2ccc(F)cc2)c2ccc(F)cc2)CC1,"inconclusive: 44.7 µM [inhibitor, partial curve, poor fit]",
Fc1ccc(C(OCCCc2cnc[nH]2)c2ccc(F)cc2)cc1,"inconclusive: 79.4 µM [inhibitor, partial curve, poor fit]",
O=c1c(-c2ccc(F)c(F)c2)nc2cncnc2n1Cc1ccccc1,"inconclusive: 1.12 µM [inhibitor, full curve, poor fit]",
CC(C)c1cnc(NC(=O)Cc2ccccc2)s1,,inactive: -17.2%
CC(C)n1c(/C=C/[C@@H](O)C[C@@H](O)CC(=O)O)c(-c2ccc(F)cc2)c2ccccc21,"inconclusive: 1.78 µM [inhibitor, full curve, poor fit]",

SMILES,Potency,"activity, negative = inhibition"
COCc1ccc(CN2CCOc3c(cc(-c4cc(C)c5cccc(OC)c5n4)cc3OC)C2)o1,"inconclusive: 89.1 µM [inhibitor, single point]",
COc1ccccc1-c1ccnc(-n2ncc(C(=O)NCCc3ccccn3)c2C)n1,"inconclusive: 0.398 µM [inhibitor, full curve, poor fit]",
FC(F)(F)c1ccccc1-c1ccc2ncnc(NCc3cccnc3)c2c1,"inconclusive: 56.2 µM [inhibitor, partial curve, poor fit]",
C=C1C(=O)OC2C[C@@]3(C)CCCC(C)C3=CC12 (some centres not stated),"inconclusive: 44.7 µM [inhibitor, partial curve]",
Clc1ccccc1-c1nccc(NCc2ccccc2)n1,"inconclusive: 79.4 µM [inhibitor, partial curve, poor fit]",
CCCCCCCCCCCCCCCC[N+](C)(C)CC,active: 56.2 µM,
COc1ccc(C2OCC3(COC(C)=O)C(C)C=C(C)C2C3C)cc1 (configuration not stated),"inconclusive: 44.7 µM [inhibitor, partial curve]",
COc1ccc(CNc2ncncc2-c2ccc3c(c2)OCO3)c(OC)c1,"inconclusive: 100 µM [inhibitor, partial curve, poor fit]",
O=c1[nH]cnc2n[nH]nc12,"inconclusive: 63.1 µM [inhibitor, partial curve, poor fit]",
COc1ccc(C(=O)NCC2Cc3cccc(-c4ccc(S(C)(=O)=O)cc4)c3O2)c(OC)n1 (configuration not stated),,inactive: -16.3%
CC[C@H]1OC(=O)[C@H](C)[C@@H](O[C@H]2C[C@@](C)(OC)[C@@H](O)[C@H](C)O2)[C@H](C)[C@@H](O[C@@H]2O[C@H](C)C[C@H](N(C)C)[C@H]2O)[C@](C)(O)C[C@@H](C)/C(=N\OCOCCOC)[C@H](C)[C@@H](O)[C@]1(C)O,,inactive: 17.5% [at 56.6 µM]
C[C@H]1C=C2C=C[C@H](C)[C@H](CC[C@@H]3C[C@@H](O)CC(=O)O3)[C@H]2[C@@H](OC(=O)[C@@H](C)CCO)C1,active: 56.2 µM,
Cc1c(OCC(F)(F)F)ccnc1CS(=O)c1nc2ccccc2[nH]1 (configuration not stated),"inconclusive: 3.55 µM [inhibitor, partial curve, poor fit]",
CNCCCCCCCCSc1nc(C(C)C)ccc1C(=O)c1cccs1,"inconclusive: 50.1 µM [inhibitor, partial curve]",
CN1CCCC1CCOC(C)(c1ccccc1)c1ccc(Cl)cc1 (configuration not stated),"inconclusive: 100 µM [inhibitor, single point]",
CCOC(=O)c1ccc(-c2c(-c3cc(OC)c(OC)c(OC)c3)noc2C)cc1F,"inconclusive: 39.8 µM [inhibitor, single point]",
COC[C@H](c1ccc(C(F)(F)F)cc1)N1CCN(C2(C)CCN(C(=O)c3c(C)ncnc3C)CC2)C[C@H]1C,,inactive: -1.21%
COc1ncc2nc(CCc3ccccc3)c(=O)n(C)c2n1,"inconclusive: 28.2 µM [inhibitor, full curve, poor fit]",
Cc1ccsc1C(=O)N(Cc1cc2ccc(F)cc2nc1N1CCC(O)CC1)CC1CCCO1 (configuration not stated),"inconclusive: 0.891 µM [inhibitor, full curve, poor fit]",
CCC(C)C(=O)O[C@H]1C[C@@H](C)C=C2C=C[C@H](C)[C@H](CC[C@@H]3C[C@@H](O)CC(=O)O3)C21 (some centres not stated),"inconclusive: 56.2 µM [inhibitor, partial curve]",
CCCCCCCCCC[n+]1ccc(/C=C/c2c(C)[nH]c3ccccc23)cc1,,inactive: 371%

SMILES,Potency,"activity, negative = inhibition"
Cc1cnc(-n2ncc(C(=O)NCc3cccnc3)c2C)nc1-c1ccc(F)cc1,,inactive: -14.1%
O=C(NCc1cccnc1)c1cnn(-c2nccc(-c3cccs3)n2)c1C1CC1,,inactive: 8.55%
Cc1ccc(OC[C@H](O)[C@H](C)NC(C)C)c2c1CCC2,"inconclusive: 100 µM [inhibitor, partial curve]",
COc1ccc2[nH]cc(CCNc3ncncc3-c3ccccc3Cl)c2c1,"inconclusive: 89.1 µM [inhibitor, partial curve]",
CCCCCCCCCCCCCCCCOCC(CO)OC(C)=O (configuration not stated),"inconclusive: 1.78 µM [inhibitor, partial curve]",
COc1ccc2[nH]cc(CCNc3ncncc3-c3ccccc3C(F)(F)F)c2c1,"inconclusive: 63.1 µM [inhibitor, partial curve, poor fit]",
COc1ccccc1-n1cc(C(=O)NCCN2Cc3ccccc3OC(c3ccsc3)C2)cn1 (configuration not stated),"inconclusive: 89.1 µM [inhibitor, single point]",
C#CCCCCCCCCCCCC(O)CC(O)CO (configuration not stated),"inconclusive: 7.94 µM [inhibitor, full curve]",
C[C@H](CCC(=O)NCC(=O)O)C1CC[C@H]2C3CC[C@@H]4C[C@H](O)CC[C@]4(C)C3C[C@H](O)[C@]12C (some centres not stated),,inactive: 9.88%
COCc1ccc(CN2Cc3ccccc3OC(c3ccccc3F)C2)o1 (configuration not stated),"inconclusive: 89.1 µM [inhibitor, partial curve]",
COC(=O)N1CCC2(CC1)CCN(c1cccc(-c3ccccc3)c1)CC2,,inactive: -29%
O=C(C[n+]1ccc(/C=C/c2c[nH]c3ccccc23)c2ccccc21)c1ccccc1,,inactive: -19%
COc1ccc(CNc2ncnc3ccc(-c4ccc(N(C)C)cc4)cc23)c(OC)c1,,inactive: -15.1%
CC(=O)OC1CCC2(C)C3=C(CCC2C1(C)C)[C@]1(C)CCC(C(C)CCC=C(C)C)[C@]1(C)CC3 (some centres not stated),"inconclusive: 44.7 µM [inhibitor, partial curve, poor fit]",
COc1cccc(Nc2ncc3nc(-c4ccc(F)cc4)c(=O)n(CCC#N)c3n2)c1,,inactive: -18.5%
CC1(C)C(O)CC[C@]2(C)C1CC[C@@]1(C)C2C(=O)C=C2[C@@H]3C[C@@](C)(C(=O)O)CC[C@@]3(C)CCC21C (some centres not stated),active: 7.08 µM,
CC1CCC2=C1C[C@H](C(C)(C)O)CC[C@@H]2C (some centres not stated),,inactive: -17.5%
O=S(=O)(c1ccccc1)N1CCC2(CCCN(Cc3ccccc3)C2)CC1,"inconclusive: 100 µM [inhibitor, single point]",
COc1ccc(C(=O)NCC2Cc3c(F)ccc(-c4nc(C)cnc4C)c3O2)cc1F (configuration not stated),"inconclusive: 14.1 µM [inhibitor, partial curve, poor fit]",
Clc1ccc(C(Cn2ccnc2)OCc2c(Cl)cccc2Cl)c(Cl)c1 (configuration not stated),"inconclusive: 15.8 µM [inhibitor, partial curve]",
